Measurements taken from the BET-seq Pho4 binding data (Le et al. 2018).
The list shows a part of the results. These are noisy estimates, calculated here from bound and input reads.

Molecular target: T1, Pho4 (S. cerevisiae) (UniProt P07270)
T1 sequence: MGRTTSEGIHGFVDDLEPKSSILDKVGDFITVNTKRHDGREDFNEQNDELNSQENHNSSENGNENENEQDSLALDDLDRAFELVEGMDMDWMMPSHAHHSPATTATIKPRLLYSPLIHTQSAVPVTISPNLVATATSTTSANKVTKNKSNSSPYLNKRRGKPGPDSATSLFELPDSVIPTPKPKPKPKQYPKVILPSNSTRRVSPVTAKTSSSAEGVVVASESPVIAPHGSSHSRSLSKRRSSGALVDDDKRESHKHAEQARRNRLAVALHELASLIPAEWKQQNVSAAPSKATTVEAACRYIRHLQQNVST
Experiment: relative binding free energy (BET-seq); higher = weaker binding
Details: reference: library average

| Sequence | relative binding free energy |
| --- | --- |
| AGTTACACGTGTCAGG | 0.05 kcal/mol |
| TAGTTCACGTGAATAG | 0.13 kcal/mol |
| GGGTGCACGTGGTTAC | -0.04 kcal/mol |
| GTAATCACGTGGGAAT | 0.19 kcal/mol |
| ATTTTCACGTGGTGTC | 0.39 kcal/mol |
| TATAGCACGTGGGCGG | -0.14 kcal/mol |
| GTTAGCACGTGATTAT | 0.1 kcal/mol |
| GATCACACGTGGGGTG | -0.09 kcal/mol |
| GATGTCACGTGTCTTT | 0.21 kcal/mol |
| AACGACACGTGTTTGG | 0.02 kcal/mol |
| TTTCGCACGTGGTGTC | -0.11 kcal/mol |
| AGTTTCACGTGATTTC | 0.28 kcal/mol |
| CTCGGCACGTGCAGGG | -0.02 kcal/mol |
| GGTCTCACGTGGGGTC | 0.13 kcal/mol |
| TTGTGCACGTGCTGGT | -0.12 kcal/mol |
| TTGCGCACGTGGTAGA | -0.19 kcal/mol |
| GCGGTCACGTGGTGCG | -0.18 kcal/mol |
| TGATGCACGTGGAAGT | 0.06 kcal/mol |
| GGTGACACGTGGTGTC | 0 kcal/mol |
| TATGTCACGTGAGCAA | 0.28 kcal/mol |
| AGGGGCACGTGGAAAT | 0.07 kcal/mol |
| TGCATCACGTGTCATG | 0.23 kcal/mol |
| GATTTCACGTGTTGTA | 0.31 kcal/mol |

| Sequence | relative binding free energy |
| --- | --- |
| TCTACCACGTGTGGGG | 0.04 kcal/mol |
| GCGGGCACGTGACTGT | 0.13 kcal/mol |
| AGGGGCACGTGAGGAT | 0.15 kcal/mol |
| TCAGTCACGTGTTGTA | 0.03 kcal/mol |
| GCGAGCACGTGGGGTC | -0.1 kcal/mol |
| GTAGTCACGTGTTAAG | 0.21 kcal/mol |
| AGTTTCACGTGCGAGG | 0.2 kcal/mol |
| GAAAGCACGTGGGGTC | -0.18 kcal/mol |
| GTAGCCACGTGGCGGG | -0.19 kcal/mol |
| GACGGCACGTGCTGGG | 0.04 kcal/mol |
| TATGCCACGTGGTTGT | -0.19 kcal/mol |
| CGTTGCACGTGTGGAC | 0.11 kcal/mol |
| TTGGTCACGTGGGTAT | -0.05 kcal/mol |
| GTTTGCACGTGTGGCA | 0.14 kcal/mol |
| TCTAGCACGTGTGTAG | -0.13 kcal/mol |
| GGTGGCACGTGGCATG | -0.11 kcal/mol |
| GTTCGCACGTGTGTAG | 0 kcal/mol |
| TTTAACACGTGATATT | -0.01 kcal/mol |
| ATATGCACGTGGTTTA | -0.2 kcal/mol |
| TGTAGCACGTGAGTGT | 0.06 kcal/mol |
| ATGGGCACGTGATCAG | -0.03 kcal/mol |
| CACGGCACGTGTATGG | 0.02 kcal/mol |
| ATAATCACGTGTGGCG | 0.04 kcal/mol |

| Sequence | relative binding free energy |
| --- | --- |
| TAGGGCACGTGATGGT | 0.02 kcal/mol |
| TGAATCACGTGTTGAT | 0.18 kcal/mol |
| TATGGCACGTGCCGTG | -0.15 kcal/mol |
| AGTGTCACGTGCCGTG | -0.02 kcal/mol |
| TGCGTCACGTGGCATG | -0.02 kcal/mol |
| GTTTGCACGTGTGGTA | 0.11 kcal/mol |
| ATTTGCACGTGGTGCT | -0.1 kcal/mol |
| ATGGGCACGTGATCTA | -0.08 kcal/mol |
| GTGTGCACGTGGTGAA | -0.01 kcal/mol |
| TGTTTCACGTGTGGAT | 0.28 kcal/mol |
| AATGTCACGTGTGTCT | 0.04 kcal/mol |
| ATCGTCACGTGTGTAT | 0.01 kcal/mol |
| AGTGGCACGTGTACGT | 0 kcal/mol |
| GTGTGCACGTGAAGGT | 0.23 kcal/mol |
| TTGTGCACGTGGTGGG | -0.04 kcal/mol |
| GGTAACACGTGGTGTG | -0.11 kcal/mol |
| TGGGACACGTGTTTAC | 0.14 kcal/mol |
| AGGAACACGTGGAGTA | 0.13 kcal/mol |
| ATTTACACGTGGCTGT | 0.01 kcal/mol |
| AACGTCACGTGGGTTA | -0.02 kcal/mol |
| TATATCACGTGGTAAT | 0.12 kcal/mol |
| TAAGGCACGTGGTGGC | -0.13 kcal/mol |
| GGTCGCACGTGTTGAT | 0.01 kcal/mol |

| Sequence | relative binding free energy |
| --- | --- |
| TTCTACACGTGTTAGG | 0.09 kcal/mol |
| TGATACACGTGTTAGG | 0.07 kcal/mol |
| TAAATCACGTGGACGG | 0.25 kcal/mol |
| TTTTGCACGTGGCAAG | -0.06 kcal/mol |
| TGTGTCACGTGGAAGT | 0.12 kcal/mol |
| TGTATCACGTGAGTGA | 0.17 kcal/mol |
| ATGGCCACGTGTGGAA | 0.08 kcal/mol |
| GGTAACACGTGTGGCG | 0.11 kcal/mol |
| CTTGACACGTGGTGAT | -0.06 kcal/mol |
| TTGTACACGTGATAGA | 0.06 kcal/mol |
| TTCACCACGTGTTTGT | -0.02 kcal/mol |
| AGCGGCACGTGGTTAG | -0.2 kcal/mol |
| GATGGCACGTGGATTT | 0.05 kcal/mol |
| TGAGTCACGTGAAGGA | 0.23 kcal/mol |
| GGGTTCACGTGAGGTT | 0.54 kcal/mol |
| TAATGCACGTGTTATG | -0.01 kcal/mol |
| GGATACACGTGATAGG | 0.17 kcal/mol |
| TCGTGCACGTGTTTAA | -0.02 kcal/mol |
| GGTTGCACGTGGTAAC | 0.05 kcal/mol |
| GGTGCCACGTGAGCGG | -0.01 kcal/mol |
| TTGGGCACGTGATGTT | 0.05 kcal/mol |
| GGGGTCACGTGCGGTC | 0.19 kcal/mol |
| TTAATCACGTGGCCGG | 0.18 kcal/mol |

| Sequence | relative binding free energy |
| --- | --- |
| TGTTTCACGTGAAAAT | 0.38 kcal/mol |
| CGGTCCACGTGGGGTA | -0.09 kcal/mol |
| AGGTGCACGTGTGGAT | 0.08 kcal/mol |
| TATAGCACGTGGTGAA | -0.21 kcal/mol |
| TATTGCACGTGGGCCT | -0.11 kcal/mol |
| AGGGGCACGTGAGGGC | 0.06 kcal/mol |
| GTGTTCACGTGCTAGG | 0.17 kcal/mol |
| TGCTGCACGTGTTATG | -0.08 kcal/mol |
| AGGATCACGTGTCGGT | 0.16 kcal/mol |
| TGTGTCACGTGCTGAG | -0.02 kcal/mol |
| TGGTACACGTGTTCGT | 0.04 kcal/mol |
| ATGGGCACGTGGTTTG | -0.07 kcal/mol |
| GTAATCACGTGGCGTT | 0.01 kcal/mol |
| TGGATCACGTGGTGCG | 0.13 kcal/mol |
| TAGGCCACGTGTGGGA | 0 kcal/mol |
| TTCAACACGTGTTATG | 0.06 kcal/mol |
| GCGTGCACGTGTGTCG | 0 kcal/mol |
| GATCGCACGTGAGGGT | 0.24 kcal/mol |
| GAGGGCACGTGTACGA | 0.19 kcal/mol |
| GGGGTCACGTGTTTTT | 0.21 kcal/mol |
| AAGTTCACGTGCGATT | 0.37 kcal/mol |
| TTATACACGTGTTTAG | 0.02 kcal/mol |
| AGTATCACGTGATGTG | 0.37 kcal/mol |
